# PubChem BioAssay (NCATS)
# Records with an inconclusive call do not appear. Unless noted, the call rests on the fitted dose curve. Not every entry of the source has a single result; some have several. Only these are listed. There may be further records. Results that share an entry are repeated measurements (runs, samples, wells, individuals or studies). The source holds several records for some structures; these can differ, active in one and inactive in another. A tag in brackets gives the origin of a value. The letters are not those of the source and start again with each entry.
# Assays:
# [1] = biological target: Estrogen receptor (Homo sapiens) (UniProt P03372); test: qHTS assay for small molecule agonists of estrogen receptor alpha signaling (AID 588514); further: nearly all actives have a fitted effect of over 70% in size; further: potency means the concentration at half of the fitted maximal effect
# Chain of UniProt P03372 (P03372 whole entry, looked up): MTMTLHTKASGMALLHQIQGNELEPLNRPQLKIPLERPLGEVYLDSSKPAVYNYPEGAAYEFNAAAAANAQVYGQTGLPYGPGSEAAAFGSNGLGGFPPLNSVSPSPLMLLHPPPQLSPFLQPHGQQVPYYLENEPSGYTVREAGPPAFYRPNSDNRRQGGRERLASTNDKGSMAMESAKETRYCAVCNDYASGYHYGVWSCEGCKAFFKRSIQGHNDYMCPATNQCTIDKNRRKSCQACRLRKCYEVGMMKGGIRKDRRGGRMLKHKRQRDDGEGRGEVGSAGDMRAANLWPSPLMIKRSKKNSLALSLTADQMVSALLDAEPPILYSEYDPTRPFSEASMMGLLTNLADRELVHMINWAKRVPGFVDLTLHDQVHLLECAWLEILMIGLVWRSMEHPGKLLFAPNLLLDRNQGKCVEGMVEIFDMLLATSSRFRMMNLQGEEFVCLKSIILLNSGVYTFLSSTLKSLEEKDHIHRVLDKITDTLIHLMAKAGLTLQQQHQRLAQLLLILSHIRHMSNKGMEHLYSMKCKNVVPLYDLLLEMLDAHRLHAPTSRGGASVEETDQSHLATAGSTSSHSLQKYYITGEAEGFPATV
# In short: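 Fluorescence from CCF4 cleavage reports ER-alpha-driven beta-lactamase expression in HEK 293 cells treated 18 hrs at 37 C. Data normalized to 17-beta-estradiol (20 nM) and DMSO, fitted to Hill equation.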
# [2] = biological target: Retinoic acid receptor RXR-alpha (Homo sapiens) (UniProt P19793); test: qHTS assay for small molecule antagonists of retinoid X receptor alpha signaling (AID 588546; active means well fitted inhibition curve with a large enough effect in the signal ratio, with a control signal flat, not every such curve was filed as active; the % refers to the signal ratio;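 further: cells stimulated with 9-cis-retinoic acid as agonist; on the % scale 0 is the no-effect control and ±100 the full control effect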); conditions: HEK293T RXRa-UAS-bla, beta-lactamase ratio, antagonist mode
# Chain of UniProt P19793 (P19793 whole entry, looked up): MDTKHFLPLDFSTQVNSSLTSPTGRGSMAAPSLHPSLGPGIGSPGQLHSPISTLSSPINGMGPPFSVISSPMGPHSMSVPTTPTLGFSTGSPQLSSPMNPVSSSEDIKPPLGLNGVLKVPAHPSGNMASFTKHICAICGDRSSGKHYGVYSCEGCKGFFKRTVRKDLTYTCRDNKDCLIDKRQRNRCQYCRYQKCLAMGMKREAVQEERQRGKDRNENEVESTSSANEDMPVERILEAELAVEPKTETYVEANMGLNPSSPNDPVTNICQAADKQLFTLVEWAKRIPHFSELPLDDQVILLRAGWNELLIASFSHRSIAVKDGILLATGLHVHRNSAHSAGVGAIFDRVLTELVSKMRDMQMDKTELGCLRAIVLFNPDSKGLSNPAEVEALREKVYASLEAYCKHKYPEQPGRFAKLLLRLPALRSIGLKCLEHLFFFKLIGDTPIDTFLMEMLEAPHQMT
# In short: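 Beta-lactamase reporter inhibition, read as CCF4 fluorescence ratio (ex 405, em 460/530 nm) after 2 h at RT. HEK293T UAS-bla cells, 2500/well, were stimulated with 9-cis-RA at 500 or 100 nM final alongside test compound for 18 h at 37 C.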
# [3] = biological target: Thyroid hormone receptor beta (Homo sapiens) (UniProt P10828); test: qHTS assay for small molecule antagonists of thyroid hormone receptor beta signaling (AID 588547; active means well fitted inhibition curve with a large enough effect in the signal ratio, with a control signal flat, not every such curve was filed as active; the % refers to the signal ratio;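 further: cells stimulated with 0.4 nM T3 agonist during compound exposure; series mostly up to about 77 µM; on the % scale 0 is the no-effect control and ±100 the full control effect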); conditions: TR-UAS-bla HEK293, beta-lactamase ratio, antagonist mode, 18 h
# Chain of UniProt P10828 (P10828 whole entry, looked up): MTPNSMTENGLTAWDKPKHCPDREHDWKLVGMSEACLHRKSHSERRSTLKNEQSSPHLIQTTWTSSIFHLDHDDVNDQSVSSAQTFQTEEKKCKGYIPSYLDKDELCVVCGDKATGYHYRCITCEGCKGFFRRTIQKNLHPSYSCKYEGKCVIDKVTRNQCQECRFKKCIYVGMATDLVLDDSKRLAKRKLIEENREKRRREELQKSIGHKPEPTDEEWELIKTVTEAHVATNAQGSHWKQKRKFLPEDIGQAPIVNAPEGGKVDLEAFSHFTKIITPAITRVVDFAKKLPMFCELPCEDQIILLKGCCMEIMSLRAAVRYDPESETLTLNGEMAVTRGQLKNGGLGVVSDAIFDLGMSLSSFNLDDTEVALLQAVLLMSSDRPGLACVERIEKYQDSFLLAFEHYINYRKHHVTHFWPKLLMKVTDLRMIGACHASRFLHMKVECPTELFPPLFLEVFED
# In short: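 Inhibition of T3-driven (0.4nM final) beta-lactamase reporter activity was measured over 0.59 nM to 92 uM compound after 18 h at 37 C. The cells were GripTite HEK293 TR-UAS-bla in charcoal/dextran-stripped serum, with CCF4 ratio read-out and IC50 from Hill fits.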
smiles,measurement,setting,value
CC12CCC(CC1=O)C2(C)C (centres undefined),Potency,[1],inactive [sample A] and active: 2 µM [sample B]
COC(=O)c1ccc(C)cc1,Potency,[1],inactive [sample A] and active: 8.91 µM [sample B]
c1ccccc1,max response,[2],"inactive: 19.6, 4.36, -4.31, -25.3% [separate samples]"
same,activity change % (negative = inhibition),[3],"inactive: 3.35, -3.59, 9.19, -24.6% [separate samples]"
